Paper PMC10052957, “Exploring Synthetic Dihydrobenzofuran and Benzofuran Neolignans as Antiprotozoal Agents against Trypanosoma cruzi” (Pharmaceutics, 2023)
pIC50: −log10 of the molar value.

Test system: amastigote forms of the T. cruzi Tulahuen lac-Z strain
Experiment: In vitro antitrypanosomal activity against amastigotes of drug-sensitive T. cruzi Tulahuen lac-Z strain (CPRG/β-galactosidase readout in LLC-MK2 cells)
Settings: for SI Tulahuen Lac-Z Strain: CC50 of LLC-MK2 divided by IC50 at 72 h; for pIC50: Trypanosoma cruzi, TULAHUEN, LLC-MK2, 72 h, read-out: IC50, Tulahuen Lac-Z Strain; for fold loss (decrease) of antitrypanosomal activity relative to parent compound: derivative versus parent DBN 1 or 2, Tulahuen lac-Z amastigotes

Compound: COC(=O)C=Cc1ccc2c(c1)C(C(=O)OC)C(c1ccc(O)cc1)O2 (mixture of isomers) [Compound 1, (±)-trans-dehydrodicoumarate dimethyl ester]
- SI Tulahuen Lac-Z Strain: 5.96

Compound: O=C(Cn1ccnc1[N+](=O)[O-])NCc1ccccc1 [BZN, benznidazole, reference compound]
- SI Tulahuen Lac-Z Strain: 20.05

Compound: COC(=O)C=Cc1cc(OC)c2c(c1)C(C(=O)OC)C(c1ccc(O)c(OC)c1)O2 (centres unmarked) [Compound 2]
- SI Tulahuen Lac-Z Strain: 8.49
- pIC50: 5.10

Compound: COC(=O)C=Cc1cc(O)c2c(c1)C(C(=O)OC)C(c1ccc(O)c(O)c1)O2 (centres unmarked) [Compound 3]
- SI Tulahuen Lac-Z Strain: 1.90
- pIC50: 4.79

Compound: COC(=O)C=Cc1ccc2c(c1)C(C(=O)OC)C(c1ccc(OC(C)=O)cc1)O2 (centres unmarked) [Compound 4]
- SI Tulahuen Lac-Z Strain: 3.15
- pIC50: 4.67
- fold loss (decrease) of antitrypanosomal activity relative to parent compound: two-fold

Compound: COC(=O)C=Cc1cc(OC)c2c(c1)C(C(=O)OC)C(c1ccc(OC(C)=O)c(OC)c1)O2 (centres unmarked) [Compound 5]
- pIC50: 4.50

Compound: COC(=O)C1c2cc(C=CC(=O)O)ccc2OC1c1ccc(O)cc1 (centres unmarked) [Compound 6]
- pIC50: 3.64

Compound: COC(=O)/C=C/c1ccc2oc(-c3ccc(O)cc3)c(C(=O)OC)c2c1 [Compound 7]
- pIC50: 4.12

Compound: COC(=O)CCc1ccc2oc(-c3ccc(O)cc3)c(C(=O)OC)c2c1 [Compound 8]
- pIC50: 3.92

Compound: OCC=Cc1ccc2c(c1)C(CO)C(c1ccc(O)cc1)O2 (centres unmarked) [Compound 9]
- pIC50: 3.61
- fold loss (decrease) of antitrypanosomal activity relative to parent compound: 20 fold

Compound: COc1cc(C2Oc3c(OC)cc(C=CCO)cc3C2CO)ccc1O (centres unmarked) [Compound 10]
- pIC50: 3.75
- fold loss (decrease) of antitrypanosomal activity relative to parent compound: 20 fold

Compound: COC(=O)CCc1ccc2c(c1)C(C(=O)OC)C(c1ccc(O)cc1)O2 (centres unmarked) [Compound 12]
- pIC50: 3.54
- fold loss (decrease) of antitrypanosomal activity relative to parent compound: 24 fold

Compound: COC(=O)CCc1cc(OC)c2c(c1)C(C(=O)OC)C(c1ccc(O)c(OC)c1)O2 (centres unmarked) [Compound 13]
- pIC50: 4.10
- fold loss (decrease) of antitrypanosomal activity relative to parent compound: 10 fold

Compound: OCCCc1ccc2c(c1)C(CO)C(c1ccc(O)cc1)O2 (centres unmarked) [Compound 14]
- pIC50: 3.87

Compound: COc1cc(C2Oc3c(OC)cc(CCCO)cc3C2CO)ccc1O (centres unmarked) [Compound 15]
- pIC50: 3.83

Compound: COC(=O)C=Cc1ccc2c(c1)C(C(=O)OC)C(c1ccc(OC)cc1)O2 (centres unmarked) [Compound 16]
- pIC50: 4.15

Compound: COC(=O)C=Cc1cc(OC)c2c(c1)C(C(=O)OC)C(c1ccc(OC)c(OC)c1)O2 (centres unmarked) [Compound 17]
- pIC50: 4.14

Compound: COC(=O)CCc1cc(OC)c2c(c1)C(C(=O)OC)C(c1ccc(OC)c(OC)c1)O2 (centres unmarked) [Compound 19]
- pIC50: 3.52
